PubChem BioAssay AID588855 (National Center for Advancing Translational Sciences (NCATS), 2011)
Screen size: about 410,000 compounds; about 5,000 (1.2%) were called active. Inconclusive results, whose numbers are uncertain, are shown with a selection of clear calls. The call rests on the fitted dose curve; in most records, active means well fitted inhibition curve with a large enough effect; inconclusive means small, poorly fitted or top-dose-only effect; inactive means no such curve, though single readings can be large or run the other way. A potency beside an inconclusive call is a rough fit, not a confirmed value.

test: qHTS for Inhibitors of TGF-b; conditions: HepG2 CAGA-GFP TGF-b/SMAD3 reporter, GFP fluorescence, 18 h, TGF-beta stimulated, 500 pg/mL final; series mostly up to 46.1 µM; further: nearly all actives have a fitted effect of over 65% in size
Method in brief: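 Using HEPG2 CAGA-GFP reporter cells at 1000 cells/well, we pinned test compounds, stimulated with recombinant TGF-beta (500 pg/mL final) and measured total well GFP after 18 h.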
Potency means the concentration at half of the fitted maximal effect; tags describe the fitted curve by direction and shape.

SMILES	Potency
CCOC(=O)N1C(COCc2ccccc2)C=CCS1(=O)=O (configuration not stated)	inactive
COc1ccc(-n2c(C)cc(C(=O)CN3CCC(C)CC3)c2C)cc1	inconclusive: 11.2 µM [inhibitor, single point]
O=C(NCCc1ccccc1)C(=O)NCC(c1ccc2c(c1)OCO2)N1CCOCC1 (configuration not stated)	inactive
CCc1nc2c(OCCC3CCCCC3)cccn2c1N(C)C(=O)c1ccc(OC)cc1	inconclusive: 35.5 µM [inhibitor, single point]
CCOc1ccc(NC(=O)CN(C)C(=O)c2cn(-c3ccccc3)nc2-c2cccs2)cc1OCC	inconclusive: 6.31 µM [inhibitor, single point]
CC1CCN(S(=O)(=O)c2nnc(NC(=O)c3cccc(Br)c3)s2)CC1	active: 4.47 µM
COc1ccc(-c2cc3nc(CCl)[nH]c(=O)c3s2)cc1	inconclusive: 35.5 µM [inhibitor, single point]
CCS(=O)(=O)N1CCc2cc(C(=O)NCCc3ccc(OC)cc3)ccc21	inactive
Cc1sc(-n2c(C)cc(/C=C3\SC(=S)NC3=O)c2C)c(C#N)c1C	inconclusive: 12.6 µM [inhibitor, partial curve, poor fit]
CC(=O)N(O)c1ccc(C=Cc2ccccc2)cc1	inconclusive: 35.5 µM [inhibitor, single point]
Cc1ccc(-n2cc(CNC(C)Cn3cncn3)c(-c3ccc(F)cc3)n2)cc1 (configuration not stated)	inactive
COC1=C(Nc2ccc(O)cc2)C(=O)c2ccccc2C1=O	inconclusive: 7.94 µM [inhibitor, partial curve, poor fit]
COc1ccccc1S(=O)(=O)N(C)C[C@H]1Oc2cc(C#CCC3CCCC3)ccc2S(=O)(=O)N([C@H](C)CO)C[C@H]1C	inconclusive: 15.8 µM [inhibitor, single point]
CC1CCN(S(=O)(=O)c2ccc3c(ccn3CCC(=O)NCc3ccc(N(C)C)cc3)c2)CC1	inconclusive: 14.1 µM [inhibitor, single point]
O=C(Nc1ccc(NC(=O)c2cccs2)cc1Cl)c1ccco1	inconclusive: 10 µM [inhibitor, partial curve, poor fit]
COc1cc2c(c(O)c1OC)-c1c(cc(OC)c(OC)c1OC)C[C@@H](C)[C@@H](C)C2	inactive
COc1ccc(-c2onc(C)c2-c2cnn(-c3ccccc3)c2)c(O)c1	inconclusive: 22.4 µM [inhibitor, single point]
O=C(Nc1ccc(Cl)c(C(F)(F)F)c1)NC1CC2CCCC(C1)N2C1CC1 (configuration not stated)	inconclusive: 20 µM [inhibitor, single point]
CCc1ccc(NC(=O)CC2C(=O)N(c3cccc(C)c3)C(=O)N2Cc2ccco2)cc1 (configuration not stated)	inconclusive: 35.5 µM [inhibitor, single point]
COc1ccc(CC2C(=O)Nc3ccc(Br)cc32)cc1OC (configuration not stated)	inactive
CCn1nc(NC(=O)C2CCCO2)c2cc3cccc(C)c3nc21 (configuration not stated)	inactive
COc1ccc(S(=O)(=O)NCC(c2ccco2)N2CCN(c3ccc(F)cc3)CC2)cc1C (configuration not stated)	inconclusive: 4.47 µM [inhibitor, single point]
O=C(NCC1CCCN1S(=O)(=O)c1cccs1)C(=O)Nc1cccc(F)c1 (configuration not stated)	inactive

SMILES	Potency
Cc1ccc(C)c(N2CCN(C(=O)c3ccc4c(=O)n5c(nc4c3)CCCCC5)CC2)c1	inconclusive: 20 µM [inhibitor, partial curve, poor fit]
CCOC(=O)c1nnn(-c2nonc2-c2ccccc2)c1C	inconclusive: 3.16 µM [inhibitor, single point]
O=C(O)c1ccccc1NC(=S)NC(NC(=O)c1ccccc1[N+](=O)[O-])C(Cl)(Cl)Cl (configuration not stated)	inconclusive: 0.398 µM [inhibitor, full curve, poor fit]
CCCCn1c(NCc2ccc(N(C)C)cc2)nc2ccccc21	active: 15.8 µM
O=C(CCOc1ccccc1)N(Cc1cccnc1)c1nc2c(F)cccc2s1	active: 15.8 µM
CC(=O)Nc1cccc(-c2ccnc3c2CC(C(=O)NCCC(F)(F)F)O3)c1 (configuration not stated)	inactive
COc1ccc(CNC(=O)COCc2cc(-c3cccs3)on2)cc1	inconclusive: 6.31 µM [inhibitor, single point]
O=C(Nc1ccc(Cl)c(C(F)(F)F)c1)C1CCN(S(=O)(=O)c2cccc3nonc23)CC1	inconclusive: 25.1 µM [inhibitor, single point]
CN1CCN(c2ccc(-c3cc(NC=O)c4ncc(-c5ccccc5)n4c3)cc2)CC1	inconclusive: 11.2 µM [inhibitor, partial curve, poor fit]
Nc1ccc(N=Nc2ccccc2O)c(N)c1	inconclusive: 4.47 µM [inhibitor, partial curve]
COC(=O)c1ccc(COC(=O)C(NC(=O)Cc2ccccc2)C(C)C)cc1 (configuration not stated)	inconclusive: 15.8 µM [inhibitor, single point]
O=C(NCCCn1ccnc1)c1cc(Cl)cc(Cl)c1	inactive
CC(=O)C1=CCC(c2cccc(Cl)c2)N(S(=O)(=O)c2ccc(C)cc2)C1 (configuration not stated)	inconclusive: 10 µM [inhibitor, partial curve, poor fit]
COC(=O)c1ccc2c(c1)C(C)(C)C(/C=C/c1ccccc1O)=[N+]2C	inconclusive: 2.51 µM [inhibitor, partial curve, poor fit]
CC(/C=C1\SC(=S)N(NS(=O)(=O)c2ccccc2)C1=O)=C\c1ccccc1	inconclusive: 22.4 µM [inhibitor, partial curve, poor fit]
CC(C)C1C(C#N)=C(N)Oc2n[nH]c(-c3ccc4ccccc4c3)c21 (configuration not stated)	inconclusive: 35.5 µM [inhibitor, single point]
Cc1ccccc1NC(=O)c1c(C)oc2ccc(O)c(CN3CCN(C)CC3)c12	inactive
COc1ccc(C(CNC(=O)c2cc(S(=O)(=O)N3CCCC3)ccc2Cl)N2CCCC2)cc1 (configuration not stated)	inactive
Cc1cccc(N2CCN(C(=S)NCc3ccco3)CC2)c1C	inconclusive: 28.2 µM [inhibitor, partial curve, poor fit]
CC(=O)Nc1ccc(NC(=O)C2Cc3c(-c4cccc(F)c4)ccnc3O2)cc1 (configuration not stated)	inactive
COc1ccc(S(=O)(=O)N(CC(=O)Nc2cccnc2)c2ccc(Cl)cc2)cc1	inconclusive: 22.4 µM [inhibitor, single point]
CCOc1ccccc1CNC(=O)c1cccn1-c1nnc(N2CCCC2)s1	inactive
CN(CCCNC(=O)Cn1c(=O)c2cccn2c2ccccc21)Cc1ccccc1	inactive

SMILES	Potency
Cc1cccc(N2CCN(C(=O)Cn3nc(Cc4cccnc4)c4ccccc4c3=O)CC2)c1C	inconclusive: 25.1 µM [inhibitor, single point]
Clc1cccc(-n2ncc3c(NCCCn4ccnc4)ncnc32)c1	inactive
COc1cccc(CC2(CO)CCN(Cc3cnc(-c4cccc(C)c4)nc3)CC2)c1	inconclusive: 12.6 µM [inhibitor, partial curve]
CC(=O)N(/N=C/c1cccc(C)c1)c1nc(-c2ccc(Br)cc2)cs1	inactive
Cc1cccc2nc(-c3cccnc3)c(NCCC(C)C)n12	inconclusive: 15.8 µM [inhibitor, single point]
O=C1[C@@H]2[C@@H]3C[C@@H]([C@H]4ON=C(c5ccc(Cl)cc5Cl)[C@@H]34)[C@@H]2C(=O)N1C1CCCCC1	inconclusive: 22.4 µM [inhibitor, single point]
CC(C)(C)C(=O)NC(=S)Nc1cc(C(F)(F)F)ccc1N1CCOCC1	inconclusive: 22.4 µM [inhibitor, single point]
CC1=C(c2ccc(Cl)cc2)S(=O)(=O)N=C1N1CCC(C(=O)NCc2ccccc2F)CC1	inactive
COc1cc(NC(=O)C2CCCN(S(=O)(=O)c3cccc4nsnc34)C2)cc(OC)c1 (configuration not stated)	inactive
O=C(NCCOC(=O)c1ccc(Cl)cc1)c1cccnc1	inconclusive: 0.1 µM [inhibitor, full curve, poor fit]
COc1ccccc1CN(C)C[C@H]1OCc2cnnn2CCCC(=O)N([C@@H](C)CO)C[C@@H]1C	inconclusive: 35.5 µM [inhibitor, single point]
COc1ccc(NC(=O)c2c(NCc3cccc(OC)c3)sc3c2CCCC3)cc1	inconclusive: 15.8 µM [inhibitor, single point]
COc1cccc(/C=N/Nc2nc3ccccc3[nH]2)c1OC	inactive
Cc1ccc2occ(CC(=O)N(Cc3ccc(C(C)C)cc3)C3CCS(=O)(=O)C3)c2c1 (configuration not stated)	inconclusive: 25.1 µM [inhibitor, single point]
C[C@H](CO)N1C[C@H](C)[C@@H](CN(C)S(C)(=O)=O)Oc2ccc(NS(=O)(=O)c3ccccc3)cc2C1=O	inconclusive: 5.62 µM [inhibitor, single point]
Cc1nc(-n2[nH]c3c(c2=O)CCCC3)[nH]c(=O)c1Cc1ccccc1	inactive
CCOC(=O)c1ccc(-n2[nH]c(-c3ccccc3)cc2=O)cc1	inconclusive: 7.08 µM [inhibitor, partial curve]
O=C(CCC1N=C2c3ccccc3N=C(SCc3ccccc3F)N2C1=O)NCc1ccc(F)cc1 (configuration not stated)	inconclusive: 11.2 µM [inhibitor, partial curve, poor fit]
CC(C)(C)c1ccc(C(=O)N2CCC(c3nc4ccccc4o3)CC2)cc1	inconclusive: 22.4 µM [inhibitor, partial curve, poor fit]
CCN1CCc2nc3sc(C(=O)c4ccc(F)cc4)c(N)c3cc2C1	inactive
Cc1ccc(C(=O)N(CC(=O)Nc2ccc(Cl)c(Cl)c2)Cc2ccco2)cc1	inconclusive: 3.98 µM [inhibitor, full curve, poor fit]
